According to publication PMC6919601, “Identification of Plasmodium dipeptidyl aminopeptidase allosteric inhibitors by high throughput screening” (PLoS ONE, 2019):
Values joined by “and” are separate entries in the source; they are usually repeats but may differ in a detail not shown here. Equal entries are not always repeated. The campaign covered roughly 110,000 compounds. About 230 (0.21%) showed an effect of 50% or more. This is one part of the list.

The molecules below were run against DPAP1 (Plasmodium falciparum, UniProt Q8IIJ9) (assay: primary screen, percent inhibition; read by cleavage of a fluorogenic dipeptide substrate; higher = more effect of the substance).
Set-up: species or system P. falciparum D10 trophozoite lysates; single well
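Also: 30 min substrate incubation versus DMSO and 10 µM JCP410 controls.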

Chain of DPAP1 (Q8IIJ9 whole entry, looked up): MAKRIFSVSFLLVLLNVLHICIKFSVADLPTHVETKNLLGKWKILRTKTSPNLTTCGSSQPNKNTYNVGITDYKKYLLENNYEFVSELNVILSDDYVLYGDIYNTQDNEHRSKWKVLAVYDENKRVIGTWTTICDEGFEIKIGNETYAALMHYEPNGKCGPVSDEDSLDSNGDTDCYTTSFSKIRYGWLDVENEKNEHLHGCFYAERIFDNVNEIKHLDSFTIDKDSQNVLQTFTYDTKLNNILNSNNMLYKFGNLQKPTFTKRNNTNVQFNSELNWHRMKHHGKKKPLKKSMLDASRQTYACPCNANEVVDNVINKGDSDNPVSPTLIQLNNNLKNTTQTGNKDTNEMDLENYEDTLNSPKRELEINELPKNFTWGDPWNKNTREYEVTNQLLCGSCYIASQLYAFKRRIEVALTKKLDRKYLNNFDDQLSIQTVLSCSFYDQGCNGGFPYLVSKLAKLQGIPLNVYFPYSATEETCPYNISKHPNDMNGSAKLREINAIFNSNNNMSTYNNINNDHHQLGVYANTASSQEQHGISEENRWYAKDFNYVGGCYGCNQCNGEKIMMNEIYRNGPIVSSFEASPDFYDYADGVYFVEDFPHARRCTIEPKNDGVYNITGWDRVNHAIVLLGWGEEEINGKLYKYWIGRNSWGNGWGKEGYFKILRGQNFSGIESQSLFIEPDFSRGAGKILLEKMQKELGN

Row | Structure (SMILES) | % Inhibition @ 10 uM
1 | COc1ccc(OC)c(CNCCc2cccc(F)c2)c1 | 2.36% and -2.09%
2 | CCOc1ccc(-c2cn3c(n2)sc2cc(C(=O)NCc4cccs4)ccc23)cc1 | 5.37%
3 | CCOc1cc(Cl)c(/C=C2\SC(N)=NC2=O)cc1OCC | 0.635%
4 | CN(CCc1ccccn1)CC1CCCCC1 | -6.62%
5 | O=C(Nc1cccc(NC(=O)c2ccncc2)c1)c1ccncc1 | -1.89%
6 | Cc1nn(CC(=O)NCC(C)c2ccccc2)c(=O)c2cc3occc3n12 (centres unmarked) | 6.06%
7 | CCOc1ccc(/C=C/c2nc3ccccc3[nH]2)cc1 | -3.78%
8 | CC/N=C(\S)C1COc2ccccc2O1 (centres unmarked) | 3.96%
9 | Oc1cnnc2ccccc12 | 4.79%
10 | C=CCn1c(SCC(=O)NCCN2CCOCC2)nc2sc(C)c(C)c2c1=O | -0.947%
11 | CCOC(=O)c1cc(CC)sc1NC(=O)CCN1C(=O)c2ccccc2S1(=O)=O | -5.08%
12 | Cc1ccc(NC(=O)c2ccc([N+](=O)[O-])cc2C(=O)O)cc1 | -5.51%
13 | COc1ccccc1-c1cc(C(F)(F)F)nc(S(=O)(=O)CCCC(=O)N2CCOCC2)n1 | 3.54%
14 | Cc1cc(C(=O)N2CCN(S(=O)(=O)c3c(C)nc(O)nc3O)CC2)[nH]n1 | 1.76%
15 | Cc1cccc(N2CCN(C(=O)c3ccoc3C)CC2)c1C | 9.25%
16 | COc1cccc(CNC(=O)C(C)n2ccc3cc(S(=O)(=O)N4CCCC4)ccc32)c1OC (centres unmarked) | 2.31%
17 | Cc1cccc(-c2nnc(NC(=O)c3c(-c4ccccc4Cl)noc3C)s2)c1 | 3.06%
18 | CN(CC(=O)NCc1ccccc1Cl)S(=O)(=O)c1cccs1 | -5.88%
19 | CCC1(C(=O)c2ccccc2)C2c3ccccc3OC(=O)C21C(=O)N1CCOCC1 (centres unmarked) | -0.958%
20 | COc1ccc(OC)c(-n2nnc(-c3nsc(NC(=O)c4ccc(C)cc4)n3)c2C)c1 | -8.04%
21 | Nc1c(C(=O)NCc2ccccc2Cl)nnn1Cc1cccc(C(F)(F)F)c1 | -2.25%
22 | O=C(CN1C(=O)c2ccccc2Sc2ncccc21)NCCc1cccs1 | 2.83%
23 | COCCNC(=O)CCN1C(=O)c2ccccc2Sc2ncccc21 | -2.97%
24 | CCCCCc1ccc(-c2nc(-c3ccc(C4CCC(CCCCC)CC4)cc3)no2)cc1 (centres unmarked) | -0.693%
25 | CCC(=O)Nc1ccc(Cl)cc1-c1nc2ccccc2s1 | -3.18%
26 | O=S(=O)(Nc1cccnc1)c1cc(Cl)ccc1Cl | 0.736%

Row | Structure (SMILES) | % Inhibition @ 10 uM
27 | CCOc1ccccc1NC(=O)c1ccc(Cl)cc1 | 2.22%
28 | N#CC1=C(N)Oc2cc(O)ccc2C1c1ccc(Br)cc1 (centres unmarked) | -0.239%
29 | C=C(C)CN1CCN(S(=O)(=O)c2ccc(C)c(N(C)S(=O)(=O)c3ccc(C)cc3)c2C)CC1 | -1.92%
30 | Cc1ccc(CNC(=O)C2CCN(c3nc4ccccc4o3)CC2)cc1 | -4.97%
31 | Nc1ncnc2c1nc(Br)n2[C@@H]1O[C@H](CO)[C@@H](O)[C@H]1O | 1.91%
32 | N#CCN1C(=O)c2cccc3cccc(c23)C1=O | -3.85%
33 | CC1=C(C(=O)Nc2cccc(F)c2)C(c2ccccn2)C2=C(O)CC(c3ccccc3)CC2=N1 (centres unmarked) | -3.46%
34 | CC1CCN(S(=O)(=O)c2ccc(C(=O)NCCc3ccc(Cl)cc3)cc2)CC1 | -2.63%
35 | Cc1ccccc1-c1noc(CCC(=O)N2CCN(C)CC2)n1 | 3.62%
36 | COc1ccc(OC)c(CNc2nc3ccccc3c3nnc(C)n23)c1 | -0.696%
37 | COc1ccc(-c2nnc3sc(C(C)N4C(=O)c5ccccc5C4=O)nn23)cc1 (centres unmarked) | 1.96%
38 | COc1ccc(CN2CCSCC2)cc1C | -1.92%
39 | O=C(NCc1ccccc1Cl)C1CCN(S(=O)(=O)c2cccnc2)CC1 | 3.07%
40 | Cc1ccc(C(=O)Nc2ccc(S(=O)(=O)N3CCCC3)cc2)cc1 | -1.38%
41 | COc1ccc(CNC(=O)c2cc3c(C)nn(-c4ccccc4)c3s2)cc1 | -3.34%
42 | CCOC(=O)c1cc2cc3cc(OC)ccc3nc2s1 | -3.13%
43 | Cc1nc2nc(-c3ccc(Cl)cc3)nn2c(O)c1C | 2.42%
44 | COc1ccccc1C1=N/C(=C\C(C)=C\c2ccccc2)C(=O)O1 | 4.85%
45 | Fc1ccccc1COc1ccc(-c2nnc3ccc(C(F)(F)F)cn23)cc1 | 0.503%
46 | Cc1ccc(C)c(NC(=O)C2CC(=O)N(c3ccc(Br)cc3)C2)c1 (centres unmarked) | 3.13%
47 | COc1ccc(OCCCn2cc(/C=C3/C(=N)N4OC(C)=CC4=NC3=O)c3ccccc32)cc1 | 2%
48 | c1cc(-c2ccsc2)nc(-c2ccsc2)c1 | -2.85%
49 | COc1cccc(C(=O)Nc2ccc(Br)c(C)c2)c1 | 0.823%
50 | Clc1nc(NCc2ccccc2)nc(NCc2ccccc2)n1 | 8.97%
51 | COc1cc(C2Nc3ccccc3C(=O)N2c2ccc(F)cc2)cc(OC)c1OC (centres unmarked) | 4.03%
52 | O=C(NCc1ccccc1)c1cc(-c2ccc3c(c2)OCO3)on1 | -8.56%

Row | Structure (SMILES) | % Inhibition @ 10 uM
53 | O=C(NCc1cccs1)c1ccc(CS(=O)(=O)c2c(Cl)cccc2Cl)o1 | -2.85%
54 | CN1CCN(CCCNC(=O)c2cn(C3CCCCC3)c(=O)c3c2c2ccccc2n3C)CC1 | 1.85%
55 | CCOc1ccc(CCNS(=O)(=O)c2ccc(Br)s2)cc1OCC | 5.93%
56 | COc1ccc(OC)c(NC(=O)CN(c2ccc(Br)cc2)S(C)(=O)=O)c1 | -9.26%
57 | O=C(CCCn1sc2ccccc2c1=O)N1CCC2(CC1)OCCO2 | 3.24%
58 | O=C(C1=Cc2sc3c(c2CS1)CCCC3)N1CCN(C2CCCCC2)CC1 | 32.6%
59 | Cc1nc2c(cc1C(=O)/C=C/c1ccco1)CCCC2 | -9.86%
60 | CCC(C)NC(=O)CCCn1nc(C)n2ccnc2c1=O (centres unmarked) | 1.72%
61 | CC(=O)c1cccc(NC(=O)c2cc(-c3ccccc3)nc3ccccc23)c1 | -3.27%
62 | COc1cccc(C2CC(C(F)(F)F)n3ncc(C(=O)Nc4cccc(Cl)c4)c3N2)c1 (centres unmarked) | -6.48%
63 | COc1ccc(C(=O)Nc2c(C)ccc3nsnc23)cc1Cl | 0.812%
64 | O=C(O)c1c(CNCCc2cccs2)c2ccccc2n1Cc1ccc(Cl)cc1 | 0.277%
65 | CCCCc1nc2c(sc3nc(C)cc(COC)c32)c(=O)n1CCO | -1.24%
66 | O=C(Nc1ccccc1)Nc1cccc(F)c1 | -0.253%
67 | CCCN1C(=O)CN(C2CCC(C)CC2)C(=O)C1c1ccc(C)cc1 (centres unmarked) | 4.47%
68 | CCN(CC)CCCn1nnc2c(=O)oc3ccccc3c21 | 2.6%
69 | CNS(=O)(=O)c1ccc(-c2cccc(C(CC(C)C)C(=O)NCC#N)c2)cc1 (centres unmarked) | -4.72%
70 | COc1ccc(C(=O)NC2=NC(=O)CC(c3cccc(OC)c3OC)N2)cc1OC (centres unmarked) | -1.59%
71 | Cc1c(CNC(=O)c2nn3c(c2Cl)NC(c2cccs2)CC3C(F)(F)F)cnn1C (centres unmarked) | -0.988%
72 | CN1CCC(N2CCN(c3cccc(Cl)c3)CC2)CC1 | -3.6%
73 | O=S1(=O)N=C(N2CCCCC2)c2ccccc21 | -2.32%
74 | CC(C)c1ccc(N2CC(C(=O)Nc3nccs3)CC2=O)cc1 (centres unmarked) | -3.85%
75 | CCC1CCCCN1CCCNc1ncnc2onc(-c3ccc(Cl)cc3)c12 (centres unmarked) | -0.495%
76 | O=C(NC1CCCC1)c1cc(-c2ccc(Cl)c(Cl)c2)on1 | -4.51%
77 | O=C(NC1CCCC1)c1cc2nc(-c3ccc(F)cc3)cc(C(F)(F)F)n2n1 | -6.77%
78 | COc1ccccc1-n1c(S)nnc1CNC(=O)c1ccccc1C(F)(F)F | -0.339%

Row | Structure (SMILES) | % Inhibition @ 10 uM
79 | N#Cc1c(NC(=O)COCc2cc(-c3cccs3)on2)sc2c1CCC2 | -3.53%
80 | Cn1cc(C(=O)NCCN2CCOCC2)c2c1-c1ccccc1SC2 | 4.28%
81 | O=C(NCc1ccncc1)Nc1ccc(Cl)c(Cl)c1 | 11.9%
82 | O=[N+]([O-])c1cnc(N2CCOCC2)nc1 | -2.36%
83 | O=C(NCc1ccco1)c1nc(-c2ccc(C(F)(F)F)cc2)no1 | -0.222%
84 | CCn1c(SCC(=O)N2CCOCC2)nc2ccccc2c1=O | -0.173%
85 | Fc1ccc(-c2noc3ncnc(NCc4ccc5c(c4)OCO5)c23)cc1 | -1.24%
86 | Cc1cccc(NCN2C(=O)C3CCCCC3C2=O)c1 (centres unmarked) | -2.98%
87 | CC1=C(C(=O)Nc2ccccc2)C(c2cccs2)C(C#N)=C(SCC(=O)c2cccs2)N1 (centres unmarked) | 5.66%
88 | CSc1ncc(C#N)c(N)n1 | -5.74%
89 | COc1ccc2ncc(C(=O)c3ccc(C)c(C)c3)c(O)c2c1 | 1.5%
90 | O=C(Nc1cccc2ccccc12)NC1CCCc2ccccc21 (centres unmarked) | -3.78%
91 | Cc1cccc(S(=O)Cc2ccc(C(=O)NC3CCN(Cc4ccccc4)CC3)o2)c1 (centres unmarked) | -0.434%
92 | O=C(CN1CCN(c2ccc3ccccc3n2)CC1)c1c[nH]c2ccccc12 | 0.266%
93 | CC(=O)C1=C(C)OC(N)=C(C#N)C1c1cccc(Cl)c1 (centres unmarked) | -3.13%
94 | O=C(Nc1ccccc1[N+](=O)[O-])NS(=O)(=O)c1ccccc1Cl | -10.3%
95 | COc1ccc(C2CC3=Nc4ccccc4NC(c4cccnc4)C3=C(O)C2)cc1OC (centres unmarked) | 3.05%
96 | CCc1nc2ccccc2n2c(-c3cccc(C)c3)c3c(=O)n(C)c(=O)n(C)c3c12 | -5.1%
97 | O=C(NCc1cccc(C(F)(F)F)c1)c1ccc2c(c1)OCO2 | -1.27%
98 | CCc1ccc(CN2CCN(C3CCN(Cc4ccccc4)CC3)CC2)cc1 | 3.79%
99 | CCCc1nn(-c2ccc(F)cc2)c(O)c1/C=N/CCCOCC | -17.1%
100 | CC(C)(C)c1c(O)n2c3[n+](c1=O)CCCN3CCC2 | 12.9%
101 | CS(=O)(=O)C1=NSC2=NC(=O)/C(=C\c3cccn3-c3cccc(C(F)(F)F)c3)C(=N)N21 | 6.63%
